Results taken from the supplement of paper PMC4723716.
Over roughly 3,600 compounds, “viability index relative to DMSO control” has its median near 0.81; the lowest 2% begin near 0.13. Some of the results follow.

The molecules below were run on Plasmodium falciparum NF54 stage V gametocytes (assay: viability index relative to DMSO control (fraction); higher = less gametocyte killing). Conditions: 1.25 µM, incubation time: 72 h.
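Further: 384-well serum-free SaLSSA: MitoTracker Red CMXRos staining with saponin lysis, high-content imaging, treated-well particle count divided by plate-mean count of DMSO wells.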

Row | Structure (SMILES) | viability index
1 | CC(C)(C)c1ccc(Cn2nnc3c(O)nc(C4CCN(C(=O)c5ccccc5)CC4)nc32)cc1 | 0.736
2 | COc1ccc(C2CC(c3cccs3)=NN2C(=O)CSc2nnc(CNC(=O)c3cccs3)n2-c2cccc(C)c2)cc1 (stereo not drawn) | 0.471
3 | COc1cccc(C=NNC(=O)CSc2ccccc2C)c1O | 1.04
4 | CCN1C(=O)N(CC(N)=O)C(=O)C12CCN(Cc1ccc(N(C)c3ccccc3)cc1)CC2 | 0.856
5 | Cc1ccc(-c2cc(C(F)(F)F)n3nc(C(=O)Nc4cccc(Cl)c4Cl)cc3n2)cc1 | 1.14
6 | Cc1cc(NS(=O)(=O)c2ccc(NC(=O)c3ccc([N+](=O)[O-])cc3)cc2)no1 | 0.66
7 | COc1ccc(Nc2nc(NN=Cc3cc4c(cc3Br)OCO4)nc(Nc3ccc([N+](=O)[O-])cc3)n2)cc1 | 1.03
8 | O=C(C1CC1)n1cc(C(=O)C(F)(F)F)c2ccccc21 | 0.865
9 | CCOC(=O)C(=O)N1c2ccccc2-c2c(ssc2=S)C1(C)C | 0.781
10 | CCOC(=O)C1=C(C)NC2=C(C(=O)CCC2)C1c1ccc([N+](=O)[O-])cc1 (stereo not drawn) | 0.971
11 | CC(C)CN1C(=O)c2ccccc2C(C(=O)Nc2ccc(F)cc2F)C1c1cccs1 (stereo not drawn) | 0.61
12 | Cc1c(Cl)cccc1NC(=O)c1cccnc1Cl | 0.815
13 | CCOC(=O)N1CCC(n2c(SCC(=O)N3CCCCCC3)nc3ccccc3c2=O)CC1 | 0.892
14 | CC1Cc2ccccc2N1C(=O)Cn1c(=O)oc2ccccc21 (stereo not drawn) | 0.946
15 | CC(=O)N1CCN(c2ccc(NC(=S)NC(=O)c3ccc(C)cc3)cc2)CC1 | 0.627
16 | Cc1nc(NN=Cc2c(O)ccc3ccccc23)cc(N2CCCCC2)n1 | 0.507
17 | CCOC(=O)c1cnc2c(C)cc(C)cc2c1Nc1ccc(OC)c(OC)c1 | 0.88
18 | CC(C)N1CCC(N2CCN(Cc3ccc4c(c3)Cc3ccccc3-4)CC2CCO)CC1 (stereo not drawn) | 0.654
19 | CCOC(=O)C1=C(C)NC2=C(C(=O)CC(C)(C)C2)C1c1ccccn1 (stereo not drawn) | 0.4
20 | O=C(CCl)Nc1ccc2c(c1)OCO2 | 0.656
21 | CCCC(C(=O)NCCC(C)C)N(C(=O)c1snc(C(N)=O)c1N)c1ccc(C(C)C)cc1 (stereo not drawn) | 0.92
22 | CCN(CC)C(=O)c1cn(C2CCN(Cc3ccco3)CC2)nn1 | 0.962

Row | Structure (SMILES) | viability index
23 | O=C(O)c1cccc(NC(=O)c2ccc(N3C(=O)c4ccc(C(=O)Nc5cccc(C(=O)O)c5)cc4C3=O)cc2)c1 | 1.09
24 | COc1ccc(-c2csc(Nc3ccc(O)cc3)n2)cc1OC | 0.767
25 | C=CCNc1ncnc2c1c(-c1ccccc1)cn2-c1ccccc1 | 1.39
26 | COc1cc(OC)c(N(C)S(=O)(=O)c2cccc(C(=O)OCC(=O)Nc3ccccc3C(C)=O)c2)cc1Cl | 0.356
27 | Cc1c(C(=O)Nc2ccccc2)sc2ncn(Cc3ccccc3Cl)c(=O)c12 | 1.17
28 | Cc1ccccc1Oc1cc(NC(=O)c2cc3n(n2)C(C(F)(F)F)CC(c2ccccc2)N3)cc(Oc2ccccc2C)c1 (stereo not drawn) | 0.81
29 | CC(C)N(C)Cc1cc(-c2nc3ccccc3s2)ccc1O | 0.875
30 | COc1cc(OC)cc(C(=O)NCc2n[nH]c(=S)n2-c2ccc(Br)cc2)c1 | 0.366
31 | COc1ccccc1N1CCN(C(=O)CCCCSc2nnc3c4cc(F)ccc4n(Cc4ccc(F)cc4)c3n2)CC1 | 0.19
32 | Clc1ncnc2ncn(Cc3ccccc3)c12 | 0.714
33 | CCCOc1ccc(C(=O)C2=C(O)C(=O)N(CCN3CCOCC3)C2c2ccc(F)cc2)c(C)c1 (stereo not drawn) | 1.05
34 | CCN1C(=S)NC2c3cc(C)ccc3OC13CCCC23 (stereo not drawn) | 0.59
35 | COC(=O)[C@@H]1C[C@@H](NC(=O)c2ccc(OC)cc2OC)CN1Cc1cc(C)ccc1C | 0.865
36 | COc1ccc(-c2c[n+](CC(=O)c3ccc(C)cc3)c3n2CCC3)cc1 | 0.928
37 | O=C(Nc1ccc(-c2nc3ccccc3[nH]2)cc1)c1ccc(-c2ccc(Cl)cc2)o1 | 0.725
38 | COc1ccc2c(c1OC)C(=O)N1c3ccccc3N=C(c3ccc(I)cc3)CC21 (stereo not drawn) | 0.459
39 | CC[n+]1c(C=C2C=C(C)OC(C)=C2)sc2ccccc21 | 0.778
40 | O=[N+]([O-])c1cccc(C(Nc2nccs2)c2ccc3cccnc3c2O)c1 (stereo not drawn) | 0.603
41 | CCOC(=O)c1cnc2ccc(OC)cc2c1Cl | 0.494
42 | S=C(NC1CCCCC1)NC1CC2CCC(C1)N2Cc1ccccc1 (stereo not drawn) | 1.03
43 | COC(=O)C1=C(C)NC2=C(C(=O)CC(c3ccc(OC)c(OC)c3)C2)C1c1ccc(Cl)cc1Cl (stereo not drawn) | 0.888
44 | COc1cccc(-n2sc3c(c2=S)-c2cc(OC)ccc2NC3(C)C)c1 | 0.693

Row | Structure (SMILES) | viability index
45 | COc1ccc(C2CC(=O)C3=C(C2)NC(C)=C(C(=O)OC2CCCC2)C3c2ccc(Cl)cc2Cl)cc1 (stereo not drawn) | 0.755
46 | CCOC(=O)C1=C(C)NC2=C(C(=O)C(C(=O)OCC)C(c3ccc(OC)cc3)C2)C1c1ccc([N+](=O)[O-])cc1 (stereo not drawn) | 0.286
47 | O=C(CCCCCN1C(=O)c2cccc3cccc(c23)C1=O)NO | 0.853
48 | Cc1cc(Br)cc(Cl)c1OC(=O)c1ccno1 | 0.95
49 | CC(C)(C)C(=O)NCCNc1ccc([N+](=O)[O-])cc1C(F)(F)F | 0.935
50 | COc1ccc2c(c1)C(C)(CC#N)C(=O)N2C (stereo not drawn) | 0.793
51 | Cc1ccc(NC(=O)c2sc3nc4c(c(-c5cccs5)c3c2N)CCCC4)cc1 | 1.17
52 | CCOc1ccc(N(C(C)=O)C2=C(N3CCN(C)CC3)C(=O)c3ccccc3C2=O)cc1 | 0.49
53 | CN(C)CCCNc1cc(-c2ccccc2)nc2ccccc12 | 0.913
54 | CCN1CCN(c2cc(C)c3cc(NC(=O)C=Cc4ccccc4Cl)ccc3n2)CC1 | 0.714
55 | COCCCNC(=O)C=Cc1ccc(C(C)C)cc1 | 0.976
56 | COC(=O)CNC(c1ccccc1Cl)c1cc(Br)ccc1NS(=O)(=O)c1ccc(C)cc1 (stereo not drawn) | 0.736
57 | CCc1ccc2c(c1)C1(NN=C(c3ccc(C)cc3)S1)C(=O)N2 (stereo not drawn) | 0.127
58 | CCOC(=O)C1=C(C)N=c2sc(=Cc3cccc(OCc4cccc5ccccc45)c3)c(=O)n2C1c1ccc(OC)cc1OC (stereo not drawn) | 0.924
59 | Cc1ccc(C(=O)NCCNC(=O)CN2CCOCC2)cc1 | 1.12
60 | CCC(C)NC(=O)c1c[nH]c2ccc(S(=O)(=O)N(C)c3cc(C)ccc3C)cc2c1=O (stereo not drawn) | 0.913
61 | CCOC(=O)c1cc(-c2ccccc2)n(CCC(=O)Nc2ccccc2N2CCN(C)CC2)c1C | 0.996
62 | Cc1ccc(-c2nc3cc(NC(=O)c4ccc([N+](=O)[O-])o4)ccc3o2)cc1Br | 0.0755
63 | Cc1[nH]c(=O)[nH]c(=O)c1S(=O)(=O)Nc1ccc2oc(-c3ccncc3)nc2c1 | 0.779
64 | O=C1C(NC2CCCCC2)=C(N2CCOCC2)C(=O)c2ccccc21 | 0.892
65 | Cc1ccc(CSCc2ccc(C(=O)NC3CC3)o2)cc1 | 0.861
66 | O=C(NCSC1=NCCS1)c1ccccc1 | 0.996

Row | Structure (SMILES) | viability index
67 | CCc1ccc(NC(=O)c2ccc(F)c(S(=O)(=O)NC3CCCC(C)C3C)c2)cc1 (stereo not drawn) | 0.697
68 | Fc1ccc(-c2c[n+](Cc3ccc(Cl)cc3Cl)c3n2CCC3)cc1 | 0.816
69 | Oc1c2c(nc3cc(-c4ccc(Cl)cc4)nn13)CCCC2 | 0.583
70 | COc1ccc(S(=O)(=O)N=C2C=C(Nc3ccccc3)C(=O)c3ccccc32)cc1 | 0.232
71 | CC1=C(C(=O)OC(C)C)C(c2ccc([N+](=O)[O-])cc2)C2=C(CC(c3ccc(Cl)cc3)CC2=O)N1 (stereo not drawn) | 0.871
72 | COc1ccc(S(=O)(=O)N=C2C=C(Nc3ccc(O)cc3)C(=O)c3ccccc32)cc1 | 0.228
73 | O=C(c1ccccc1)N1CCc2nc(Cc3ccc(F)cc3Cl)sc2C1 | 0.708
74 | CN1CCCC1CCNCc1cc(-c2ccnc3cc(Cl)ccc23)ccc1O (stereo not drawn) | 0.75
75 | CC12CCC(C(=O)N(CC(O)Cn3c4ccc(Cl)cc4c4cc(Cl)ccc43)C1=O)C2(C)C (stereo not drawn) | 0.377
76 | CCOC(=O)c1cccc(NC(=O)CCn2nc(C)c3c(C)n(-c4ccccc4)nc3c2=O)c1 | 0.739
77 | COc1ccc(CCn2c(SCC(=O)N3CCN(c4ccccc4OC)CC3)nc3ccccc3c2=O)cc1OC | 0.747
78 | Cc1ccc(Nc2nc(NCCO)c3ccccc3n2)cc1C | 0.601
79 | CCC(CC)=NNC(=O)C(=O)NC1CCCCC1 | 1.13
80 | Cc1nc(N(C)c2ccc(C(C)C)cc2)c2c(C)c(C(=O)Nc3cc(C)on3)sc2n1 | 0.732
81 | O=C1C(NC2CCCC2)=C(N2CCOCC2)C(=O)c2ccccc21 | 1.22
82 | CC(C)CCN1C(=O)N(CCN(C)C)C(=O)C12CCN(Cc1ccc(O)cc1)CC2 | 0.971
83 | COc1ccccc1C=CC1=NC(=Cc2ccc(SC)cc2)C(=O)O1 | 0.789
84 | Cc1ccc(C2C3=C(CC(C)(C)CC3=O)N(Cc3ccc4c(c3)OCO4)C3=C2C(=O)CC(C)(C)C3)cc1 | 0.811
85 | CCOc1ccc(C=C(C#N)c2nc3ccccc3[nH]2)cc1OC | 0.837
86 | CC(NCc1ccccc1)c1cc(Cl)ccc1O (stereo not drawn) | 0.625
87 | COc1ccc(C(=O)N2c3cc(C)ccc3C(Nc3ccc(C)cc3)CC2C)cc1 (stereo not drawn) | 1.02
88 | COc1cc(OC)c(NC(=O)c2ccc(N3CC4CC(C3)c3cccc(=O)n3C4)c([N+](=O)[O-])c2)cc1Cl (stereo not drawn) | 0.905
